Source: the supplement of paper PMC10326071
± gives the standard deviation of the averaged measurements. The list shows a part of the results. Repeats are few or missing, and single values can be far off.

What follows are compounds tested on SARS-CoV-2 nsp3 SARS-unique domain core (SUD-core, nsp3 residues 413-676) (assay: apparent dissociation constant Kd (single-concentration BLI fit); higher = weaker binding). Conditions: 100 µM; 25 °C.

Structure (SMILES)	apparent dissociation constant Kd
Nc1nc2c(ncn2[C@@H]2O[C@H](COP(=O)(O)OP(=O)(O)OP(=O)(O)O)[C@@H](O)[C@H]2O)c(=O)[nH]1	99.1 µM
COc1cc2nnc(C(N)=O)c(Nc3ccc(C)cc3F)c2cc1N1CCN(CCO)CC1	152 µM
O=C(NCCN1CCOCC1)c1cc2c(Oc3ccc(NC(=O)C4(C(=O)Nc5ccc(F)cc5)CC4)cc3)ccnc2[nH]1	3140 µM
O=C1Nc2ccc(I)cc2/C1=C/c1cc(Br)c(O)c(Br)c1	450 µM
CSC[C@H]1O[C@@H](n2cnc3c(N)ncnc32)[C@H](O)[C@@H]1O	104 µM
O=c1[nH]cnc2c1ncn2[C@@H]1O[C@H](CO)[C@@H](O)[C@H]1O	148 µM
Cc1cc(Nc2cc(N3CCN(C)CC3)nc(Sc3ccc(NC(=O)C4CC4)cc3)n2)n[nH]1	1020 µM
Nc1ncnc2c1c(-c1cccc(OCc3ccccc3)c1)cn2C1CC(CN2CCC2)C1 (centres undefined)	22.5 µM
NC(=O)c1ncn([C@@H]2O[C@H](CO)[C@@H](O)[C@H]2O)c1O	168 µM
CCc1cc2c(cc1-c1cnn(CC(=O)N(C)C)c1)C(C)(C)c1[nH]c3cc(C#N)ccc3c1C2=O	81 µM
CN(C)c1ncnc2c1ncn2[C@@H]1O[C@H](CO)[C@@H](N)[C@H]1O	65.2 µM
CNC(=O)c1nn(C)c2c1C(C)(C)Cc1cnc(Nc3ccc(N4CCN(C)CC4)cc3)nc1-2	1910 µM
Nc1nc2c(ncn2[C@@H]2O[C@H](CO)[C@@H](O)[C@H]2F)c(=O)[nH]1	12900 µM
COc1cc2c(cc1OC)-c1[nH]nc(Nc3cccc(F)c3)c1C2	178 µM
O=C1c2c(O)cc(O)cc2O[C@H](c2cc(O)c(O)c(O)c2)[C@H]1O	15.5 µM
O=C(Nc1cccc(-c2nncn2C2CC2)c1)c1cc(-n2cnc(C3CC3)c2)ccn1	702 µM
Cc1nc(Nc2ncc(C(=O)Nc3cc(NC(=O)c4cccc(C(F)(F)F)c4)ccc3C)s2)cc(N2CCN(CCO)CC2)n1	21.2 µM
Nc1nn2cc(F)cnc2c1C(=O)Nc1cncc(F)c1N1CCC(C(=O)N2CCN(C3COC3)CC2)CC1	6.61 µM
Cn1cnc([N+](=O)[O-])c1C[N+](C)(C)C/C=C/C(=O)Nc1cc2c(Nc3ccc(Cl)c(Br)c3)ncnc2cn1	3500 µM
CCCc1cc(=O)[nH]c(=S)[nH]1	67.4 µM

Structure (SMILES)	apparent dissociation constant Kd
O=C(Nc1cccc(C(F)(F)F)c1)c1cccc2cc(Oc3cc(CO)ncn3)ccc12	17400 µM
CC(=O)Nc1ccn([C@@H]2O[C@H](CO)[C@@H](O)[C@H]2O)c(=O)n1	211 µM
CN1CCN(Cc2ccc(-c3cn(C4CCC(O)CC4)c4nc(NCCC5CC5)ncc34)cc2)CC1 (centres undefined)	82.6 µM
CCCCCCCCCCCCCCCCCCCCCC(=O)Nc1ccn([C@@H]2O[C@H](CO)[C@@H](O)[C@@H]2O)c(=O)n1	2540 µM
COc1cc2ncnc(Nc3ccc(O)c(Br)c3)c2cc1OC	4000 µM
CC(C)NC(=O)C1CCC(n2c(NC(=O)c3ccc(F)cc3)nc3ccc(CN4CCC(C(C)(C)O)CC4)cc32)CC1 (centres undefined)	6.65 µM
CCCS(=O)(=O)Nc1ccc(F)c(-n2cc(-c3cncnc3)c3nc(N(C)C4CCN(CC)CC4)ccc32)c1F	20.6 µM
CN(C)C/C=C/C(=O)Nc1cccc(C(=O)Nc2cccc(Nc3ncc(Cl)c(-c4c[nH]c5ccccc45)n3)c2)c1	67.7 µM
O=C1Nc2nc(-c3c(O)cccc3OCC3CC3)cc([C@@H]3CCCNC3)c2CO1	2210 µM
Cn1cnc([N+](=O)[O-])c1Sc1ncnc2nc[nH]c12	7080 ± 7500 µM
COc1ccc(Cl)c(Nc2ncnc3cc(OCC4CCN(C)CC4)c(OC)cc23)c1	139 µM
CNC(=O)[C@H]1O[C@@H](n2cnc3c(NCc4cccc(I)c4)nc(Cl)nc32)[C@H](O)[C@@H]1O	969 µM
COc1c(C)c(C(=O)c2ccc(N)c(C(=O)O)c2)n2ccccc12	1350 µM
Nc1n[nH]c2nnc(-c3c(-c4ccccc4)nn4ccccc34)cc12	46.3 µM
NC(=O)Nc1sc(-c2ccc(F)cc2)cc1C(N)=O	1030 µM
C[C@@H](Oc1ccc2[nH]nc(/C=C/c3cnn(CCO)c3)c2c1)c1c(Cl)cncc1Cl	101 µM
C=CC(=O)Nc1cc(Nc2ncc(C(=O)OC(C)C)c(-c3cn(C)c4ccccc34)n2)c(OC)cc1N(C)CCN(C)C	1690 µM
C[N+](C)(C)CCOP(=O)(O)OP(=O)([O-])OC[C@H]1O[C@@H](n2ccc(N)nc2=O)[C@H](O)[C@@H]1O	562 µM
O=C(NCCN1CCOCC1)Nc1nc2ccc(Sc3nnc4ccc(-c5ccc(F)cc5)nn34)cc2s1	8830 µM
